# Assay results reported in the supplement of paper PMC11417369.
# ± gives the standard deviation of the averaged measurements. The list shows a part of the results.
# Test system: PfAP2-I AP2 domain 3 (GST-tagged)
# Test: gcPBM binding intensity (ln(normalized median fluorescence intensity)); higher = stronger DNA binding
# In short: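 The binding buffer was 1× PBS containing 1% milk, 0.2 mg/ml BSA, 0.5% salmon testes DNA and 0.03% Triton X-100. In it, GST-tagged P. falciparum DNA-binding domains expressed in E. coli were applied for 1 h to an Agilent 4 × 180k array of primer-extended double-stranded 36-bp intergenic genomic probes plus negative controls. Binding intensity, read with Alexa488 anti-GST antibody and a 488 nm scan, is the highest Masliner-normalised natural-log median intensity across replicate spots of either probe orientation.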
row,Sequence,gcPBM binding intensity (ln)
1,ACTTATGATTTATTTTGTACATATATACTATTCCTG [XGTACX_site5275],8.17 ± 0.71
2,ACAAATACTAACAACGCATGTAAGCCTACAATAAAT [TGCATGCA_site551],7.78 ± 0.57
3,GCTCCTTTTACCATCGCACACGATAAAAAAAAATAA [CACACA_site3255],8.79 ± 0.16
4,TTTTTTTTCTAAATTATATGAAAATATATGTTATGT [GTGCAC_negctrl_site85],7.79 ± 0.23
5,ACAATTTTAAAATGAACACACATGTTTTTCTTACTT [CACACA_site1014],7.75 ± 0.74
6,ATTTTCTATTTTATTTGTACGTAATTTAATTTTTTT [XGTACX_site3609],8.24 ± 0.49
7,TACATAAACATTTATACACACATTATAAATACATAT [CACACA_site4386],7.82 ± 0.35
8,ATAAAGATTAATAAAATAAAATTCCGCAAACATATA [CACACA_negctrl_site244],7.56 ± 0.54
9,TTTTGAAATTTTTGTGTTTTTCCTTTTTATTTTATA [CACACA_negctrl_site1740],7.36 ± 0.71
10,ATAAATCCATGTAACTGTACTTTTTTTTTTTTTTTT [XGTACX_site7373],8.86 ± 0.36
11,AAGTAATTTGTTGACACACACACACGCATACCTATA [CACACA_site7140],8.07 ± 0.65
12,TCCCAATTTCTATCCTGTACAGACATAAATATATAC [XGTACX_site5937],8.31 ± 0.49
13,ATAAAAATAAAATGGACACACATATATACATATTTG [CACACA_site3277],7.58 ± 0.4
14,AATTATAATAAATAACGTACAAAAAATAAATTATTT [XGTACX_site3627],7.76 ± 0.42
15,TTTTTTTTTGATATTTGTACTTAAGTAAATATTATA [XGTACX_site3843],7.67 ± 0.49
16,TATATATTCATGTGTACACACAAAAAAAAATAAAGT [CACACA_site2207],8.41 ± 0.65
17,ATAAGCGAATATATATCACACACAAAAAAATCAGAC [CACACA_site8657],8.51 ± 0.59
18,ATATTACACAGATATGCACACATTGTAGTTATTTAT [CACACA_site5454],8.91 ± 0.26
19,AAAAAGGAAATTTACACACACATATAACATACATTA [CACACA_site7534],7.68 ± 0.6

row,Sequence,gcPBM binding intensity (ln)
1,ACATATCGGGTGCATTAACACACATTTATTTGAATA [CACACA_site8736],11.8 ± 0.52
2,ATTATATCACTGTGTTGTACTTCTTATATAAAAATA [XGTACX_site2333],8.2 ± 0.36
3,TCCGTATAATTTTGCACACGAATATAAATTTGATAA [CACACA_site136],9.53 ± 0.2
4,TTTAATTCTTATATTTGTACAGATTCATAATTAAAT [XGTACX_site7465],7.58 ± 0.46
5,CGTTTATTAAACTTGACACACACACCCCCACATATA [CACACA_site8151],9.2 ± 0.13
6,AATCGATAACAATGTAGTACCAGAAAAATAAATATT [XGTACX_site8501],7.9 ± 0.76
7,TATATATATATATATGCATGCCATATGATATATATA [TGCATGCA_site109],9.43 ± 0.72
8,TCATATTTACAAAAAGGTATTAATAAATAAAATATT [CACACA_negctrl_site259],7.67 ± 0.58
9,AATAAGTGTTGATTCTTAAAATGACCATATAATAAT [TGCATGCA_negctrl_site221],7.62 ± 0.44
10,TATCTTTTATAAGTGACACACATAAATATTTAAATT [CACACA_site833],7.79 ± 0.35
11,ATATTAGGGTCATGAACACACAAAAAAAAAAAAAAA [CACACA_site937],8.07 ± 0.77
12,GCTATCATATCATGTTGTACACAACCTCAAAATGAA [XGTACX_site8757],8.07 ± 0.55
13,TTGATATAAAAAGAAAGTACTTTATAGATGTTTATT [XGTACX_site8144],7.7 ± 0.67
14,TATAAAAATATATATATATATATATATATATATATA [TGCATGCA_negctrl_site541],9.12 ± 0.38
15,AATAATAACAAATGAACACACATATATATGAGCAAA [CACACA_site2121],7.72 ± 0.35
16,TGTATAACCTGTGTTACACACATTAGAATTTATATA [CACACA_site6393],7.58 ± 0.43
17,TTCTCCATCAGATACTGTACATAATATATATAATAT [XGTACX_site8827],8.1 ± 0.33
18,TACATAAACTTTATAACACACACTTATATATATATA [CACACA_site1106],9.13 ± 0.31
19,TATATAAAGATATATACACACAAAAAAAAAAAAAAA [CACACA_site6778],7.95 ± 0.71

row,Sequence,gcPBM binding intensity (ln)
1,GCATCATTTATTTGCACACCTATTATATACTTTTTA [CACACA_site2098],10.2 ± 0.25
2,TTTTACTCTTAAAATAATAAAAAATATTCACATTTA [CACACA_negctrl_site1508],7.18 ± 0.54
3,AAAAAGAATATAAGTAGTACAGTGCATATAATAATT [XGTACX_site617],10.3 ± 0.37
4,TATATATACATATACGCATGTAAATTCAAAAGTAAA [TGCATGCA_site956],7.62 ± 0.37
5,AAGAGAAATGGGCACACACACACATATTATATATAT [CACACA_site1531],8.59 ± 0.54
6,TATAATTTTTTTAATACACACAAATATTTATATATA [CACACA_site3042],7.78 ± 0.34
7,AATTAATGTTTTGTCACACAGTATGATTATATATAT [CACACA_site6143],8.27 ± 0.9
8,TTAGTATATTTTTCCTGTACGTACTCAGATACAAAT [XGTACX_site7397],8.15 ± 0.42
9,TTAAATAATTTTTAATGTACATTAAATTTATTATTA [XGTACX_site261],7.55 ± 0.3
10,TACACATTATGTATCATACACACAAATAAATATATA [CACACA_site608],7.78 ± 0.29
11,TGAAGATAAAAATATGCACACATATATATATATATA [CACACA_site8027],9.48 ± 0.31
12,CATAAAAATGAACATACACACATATATTTATTTATA [CACACA_site7222],7.41 ± 0.43
13,ACATATTATAGGAATACACACAAAAACTTATCGGTA [CACACA_site7587],7.72 ± 0.59
14,ATTATATATATTGGAGTGCATATATAGTATTTTATA,9.88 ± 0.4
15,ATAGAAATCTATTGTGATTATTATTTTATTTTTAGT [XGTACX_negctrl_site605],7.5 ± 0.24
16,AATGTATTATGTAATAGTACGTATAATATCTTATTT [XGTACX_site3],7.64 ± 0.35
17,ATACATATCTATAATACACACATAAATGTAACATTT [CACACA_site7621],8.23 ± 0.52
18,TTCTACGTTTTAAAAAAAAAAAAAAAAAAAAAAAAA [XGTACX_negctrl_site6],8.13 ± 0.78
